# Laboratory results from PubChem BioAssay AID504832 (National Center for Advancing Translational Sciences (NCATS), 2011).
# In all, about 310,000 compounds went through this assay and about 18,000 (5.8%) were called active. Inconclusive means that the source gave no clear call. Such entries were picked first, then a sample of the others. Calls come from the whole dose curve; as a rule, active = well fitted inhibition curve with a large enough effect; inconclusive = small, poorly fitted or top-dose-only effect, or another doubt; inactive = no such curve, though single readings can be large or run the other way. No potency is given beside an inconclusive call; the fits are too rough.
# Assay: Primary qHTS for delayed death inhibitors of the malarial parasite plastid, 48 hour incubation
# Details: P. falciparum luciferase growth in erythrocytes; series mostly up to 28.7 µM
# Procedure, shortened: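 Luciferase-expressing P. falciparum in infected erythrocytes (2% hematocrit, 0.1% parasitemia final) in RPMI 1640/0.5% Albumax were exposed to compound for 48 hours at 37 C, 5% CO2; growth read as luminescence.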
# Potency is the fitted concentration of half-maximal effect; tags give direction and shape of the fitted curve.
row,SMILES,Potency
1,CN(C)c1ccc(C2C=C(c3ccc(Cl)cc3OC(F)F)Nc3ncnn32)cc1 (centres undefined),"inconclusive [inhibitor, partial curve]"
2,Cc1nc2c(=O)n(-c3cccc(C(F)(F)F)c3)nc(C)c2s1,inactive
3,Cc1ccc(N(C)C(=O)c2cc(S(=O)(=O)N3CCc4ccccc43)cn2C)cc1,"inconclusive [inhibitor, single point]"
4,CCOC(=O)c1ccccc1NC(=O)C1CSC2(C)CCC(=O)N12 (centres undefined),inactive
5,CCOC(=O)C1CCCN(C(=O)c2cc(S(=O)(=O)N3CCCCCC3)ccc2OC)C1 (centres undefined),active: 9.28 µM
6,CCCCn1c(N)c(C(=O)OCCOC)c2nc3ccccc3nc21,"inconclusive [inhibitor, single point]"
7,O=C(Cc1ccc(S(=O)(=O)N2CCOCC2)s1)Nc1ccccc1Br,active: 2.33 µM
8,COc1ccc(S(=O)(=O)N2CCCCC2)cc1NC(=O)Cc1sc(C)nc1-c1ccc(F)cc1,active: 11.7 µM
9,S=C(NCC1CCCO1)N1CCN(c2nc(-c3ccccc3)cs2)CC1 (centres undefined),"inconclusive [inhibitor, single point]"
10,CCOc1ccc(NC(=O)C2CC(=O)N(Cc3ccco3)C2)cc1 (centres undefined),inactive
11,CCOCCn1ccc2c(OCC(=O)Nc3ccccc3F)cccc2c1=O,"inconclusive [inhibitor, full curve, poor fit]"
12,O=C(Cn1c(O)c(/C=C2\C=Nc3ccccc32)sc1=O)Nc1ccc2c(c1)OCO2,inactive
13,Cn1c(=O)c2c(ncn2CC(=O)Nc2nccs2)n(C)c1=O,inactive
14,O=C1C(c2ccc(F)cc2)N(C2CCCCC2)C(=O)CN1C1CCCC1 (centres undefined),"inconclusive [inhibitor, partial curve, poor fit]"
15,Cc1ccc(C)c(SCC(=O)Nc2cc(S(=O)(=O)N3CCOCC3)ccc2C)c1,"inconclusive [inhibitor, single point]"
16,COc1ccccc1-c1cc(C(=O)Nc2cc(C)nn2-c2ccccc2)no1,"inconclusive [inhibitor, partial curve, poor fit]"
17,COC(=O)C1=CN(c2ccc(OC)cc2)C=C(C(=O)OC)C1c1cccc(F)c1,"inconclusive [inhibitor, full curve, poor fit]"
18,CN1CCN(C(=O)c2ccc3c(=O)n(Cc4ccc(Cl)cc4)c(=S)[nH]c3c2)CC1,"inconclusive [inhibitor, single point]"
19,O=C(COc1ccccc1)NCC(=O)Nc1cccc2ccccc12,inactive
20,OC(COCc1ccc(Cl)cc1)CN1CCN(CC(O)COCc2ccc(Cl)cc2)CC1 (centres undefined),"inconclusive [inhibitor, partial curve]"
21,Cc1ccc(S(=O)(=O)N2CCCCC2)cc1NC(=O)c1ccncc1,inactive
22,CCOC(=O)C1=C(C)NC(=O)NC1C1CC=CCC1 (centres undefined),"inconclusive [inhibitor, single point]"

row,SMILES,Potency
1,O=C1c2ccccc2C(Nc2ccc3c(c2)OCO3)N1Cc1ccc2c(c1)OCO2 (centres undefined),active: 9.28 µM
2,CCC(C)Sc1ccc(-c2nc3ccc(C)cn3c2NCc2ccccc2)cc1OC (centres undefined),active: 3.7 µM
3,CC12CCC(C(=O)NCCCn3ccnc3)(OC1=O)C2(C)C (centres undefined),inactive
4,CCN(C(=O)CSc1nnc(-c2c[nH]c3ccccc23)n1C1CC1)C1CCS(=O)(=O)C1 (centres undefined),"inconclusive [inhibitor, single point]"
5,CCCCN(C(=O)c1cc(-c2ccco2)nc2ccccc12)c1c(N)n(CCCC)c(=O)[nH]c1=O,"inconclusive [inhibitor, single point]"
6,CCNC(=S)N=Nc1c(O)[nH]c2ccc(C(C)C)cc12,"inconclusive [inhibitor, single point]"
7,CCOCCCNC(=O)CN1C(=O)CSc2ccc(S(=O)(=O)N3CCOCC3)cc21,inactive
8,COc1cccc(C(=O)NCCS(=O)(=O)NC(C)CCc2ccccc2)c1 (centres undefined),"inconclusive [inhibitor, single point]"
9,Cc1nc2ccccc2c2oc(C(=O)NCCN3CCCCC3C)cc12 (centres undefined),"inconclusive [inhibitor, single point]"
10,O=C(NCc1ccccc1)N1CCC(CO)(Cc2cccc(F)c2)CC1,inactive
11,CCCCCn1c(SCC(=O)OCC)nc2cc(C(=O)NCc3ccco3)ccc2c1=O,"inconclusive [inhibitor, full curve]"
12,COc1ccc(OC2C(=O)N(Cc3ccc(F)cc3)C2c2ccc(OC)c(OC)c2)cc1 (centres undefined),"inconclusive [inhibitor, partial curve, poor fit]"
13,CC(C)c1c(C(=O)N/N=C/c2ccccc2OCc2c(F)cccc2Cl)nnn1-c1nonc1N,"inconclusive [inhibitor, partial curve, poor fit]"
14,COc1ccccc1NC(C)=[N+](C)CCNS(=O)(=O)c1ccc(Cl)cc1,inactive
15,CCn1c(Sc2nc(C)nc3scc(-c4cccs4)c23)n[nH]c1=O,"inconclusive [inhibitor, partial curve]"
16,CCN(CC)CCCNC(=S)N1CCN(c2nc(-c3ccc(F)cc3)cs2)CC1,active: 9.28 µM
17,COc1cc(/C=C/c2cc(C(=O)O)c3ccccc3n2)cc(OC)c1O,inactive
18,CCOc1ccccc1OCC(=O)Nc1cccc(S(=O)(=O)N2CCCCCC2)c1,"inconclusive [inhibitor, single point]"
19,O=C(Nc1ccc(N2CCN(C(=O)c3ccco3)CC2)cc1)C(c1ccccc1)c1ccccc1,"inconclusive [inhibitor, partial curve]"
20,c1ccc(-c2cc(-c3ccccc3)[n+](-c3ccccc3)c(-c3ccccc3)c2)cc1,active: 0.294 µM
21,O=C(CC1SC(=Nc2ccc(OC(F)F)cc2)N(CCN2CCOCC2)C1=O)Nc1ccccc1 (centres undefined),"inconclusive [inhibitor, single point]"
22,CC(=O)Nc1ccc(Oc2sc(C(=O)c3ccccc3)c(N)c2C#N)cc1,"inconclusive [inhibitor, partial curve, poor fit]"
